IC50 is the fitted dose that halves viability relative to control wells, and lower means more sensitive; fits outside the tested doses are given as limits. The AUC spans the tested range (256-fold, ending at the top dose) of the same fit; it is 1 without any effect and falls as sensitivity rises. For part of these data: The top dose, if marked as inferred, was calculated from the reported fits.
Tests used:
Experiment in all cases: Viability of human cancer cell lines after 72 h of drug (GDSC screen)
PIK-93 = compound: CC(=O)Nc1nc(C)c(-c2ccc(Cl)c(S(=O)(=O)NCCO)c2)s1 [PIK-93]; details: top dose 20 µM
Protocol: (§1)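 Human cancer cell lines in 384-well plates, medium with 10% serum, drug for 72 h over a 256-fold dose range (nine 2-fold or five 4-fold steps up to the top dose). Adherent lines were fixed and stained with the nucleic acid dye Syto60, suspension lines read with resazurin; signal relative to control wells, capped at 0 and 100%. One two-parameter sigmoid per drug and line, fitted in a mixed model over all curves with the slope shared within a line.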

piperlongumine = compound: COc1cc(/C=C/C(=O)N2CCC=CC2=O)cc(OC)c1OC [piperlongumine]; details: top dose 10 µM
Protocol: as §1

GW 441756 = compound: Cn1cc(/C=C2\C(=O)Nc3cccnc32)c2ccccc21 [GW 441756]; details: top dose 2 µM; top dose inferred
Protocol: as §1

Cell Line	AUC (PIK-93)	IC50 (PIK-93)	AUC (piperlongumine)	IC50 (piperlongumine)	AUC (GW 441756)	IC50 (GW 441756)
769-P (kidney, adherent)	0.87	> 20 µM	0.685	2.17 µM		
A204 (rhabdomyosarcoma, adherent)	0.746	7.95 µM	0.639	1.7 µM		
A549 (lung adenocarcinoma, adherent)					0.903	> 2 µM
A2058 (melanoma, adherent)	0.978	> 20 µM	0.692	2.02 µM	0.987	> 2 µM
ABC-1 (lung adenocarcinoma, adherent)	0.852	> 20 µM	0.669	2.04 µM	0.818	1.44 µM
ACHN (kidney, adherent)	0.877	> 20 µM	0.771	4.38 µM	0.959	> 2 µM
AN3-CA (endometrium, adherent)	0.792	9.99 µM	0.659	1.8 µM	0.974	> 2 µM
BEN (non-small cell lung carcinoma, adherent)	0.915	> 20 µM	0.929	> 10 µM		
BFTC-909 (kidney, adherent)	0.965	> 20 µM	0.658	1.7 µM		
BICR31 (head and neck, adherent)	0.923	> 20 µM				
CAKI-1 (kidney, adherent)	0.868	> 20 µM	0.739	4.33 µM	0.957	> 2 µM
CAMA-1 (breast, adherent)	0.84	19.1 µM	0.792	5.86 µM		
COLO-792 (melanoma, adherent)	0.904	> 20 µM	0.778	3.99 µM		
COR-L32 (small cell lung carcinoma, suspension)			0.8	> 10 µM		
COR-L105 (lung adenocarcinoma, adherent)	0.645	3.46 µM	0.728	3.27 µM		
COR-L303 (small cell lung carcinoma, suspension)	0.742	5.98 µM				
COR-L311 (small cell lung carcinoma, suspension)	0.554	1.77 µM				
Caov-3 (ovary, adherent)	0.757	6.14 µM				
DMS-53 (small cell lung carcinoma, adherent)	0.988	> 20 µM	0.867	> 10 µM	0.9	> 2 µM
Daoy (medulloblastoma, adherent)	0.868	15.4 µM	0.614	1.24 µM	0.981	> 2 µM
EFM-19 (breast, adherent)	0.674	4.92 µM	0.777	6.38 µM	0.916	> 2 µM
EPLC-272H (lung squamous cell carcinoma, adherent)	0.721	5.8 µM	0.777	4.54 µM	0.956	> 2 µM
GCT (soft tissue, adherent)	0.981	> 20 µM	0.599	1.15 µM		
GP5d (large intestine, adherent)	0.809	9.09 µM	0.871	7.74 µM		

Cell Line	AUC (PIK-93)	IC50 (PIK-93)	AUC (piperlongumine)	IC50 (piperlongumine)	AUC (GW 441756)	IC50 (GW 441756)
H2803 (mesothelioma, adherent)	0.948	> 20 µM	0.816	6.72 µM		
H2804 (mesothelioma, adherent)	0.94	> 20 µM	0.826	6.84 µM		
H2810 (mesothelioma, adherent)			0.9	> 10 µM		
H2818 (mesothelioma, adherent)	0.97	> 20 µM	0.816	5.75 µM		
HO-1-N-1 (head and neck, adherent)	0.893	> 20 µM	0.734	2.72 µM		
HPAC (pancreas, adherent)	0.831	> 20 µM	0.971	> 10 µM		
HPAF-II (pancreas, adherent)	0.82	16.3 µM	0.738	3.77 µM		
HSC-3 (head and neck, adherent)	0.973	> 20 µM	0.635	1.39 µM		
HTC-C3 (thyroid, adherent)	0.77	8.54 µM	0.782	4.73 µM		
Hs940-T (melanoma, adherent)	0.984	> 20 µM	0.796	5.84 µM		
IM-95 (stomach, adherent)	0.707	5 µM	0.977	> 10 µM		
J82 (bladder, adherent)	0.968	> 20 µM	0.758	3.45 µM		
KOSC-2 (head and neck, adherent)	0.871	> 20 µM	0.717	2.65 µM		
KP-4 (pancreas, adherent)	0.963	> 20 µM	0.725	2.63 µM		
KYSE-180 (oesophagus, adherent)	0.827	11.5 µM	0.87	8.61 µM		
KYSE-270 (oesophagus, adherent)	0.73	5.01 µM	0.783	3.58 µM		
LU-99A (large cell lung carcinoma, adherent)	0.865	17.4 µM	0.74	3.01 µM		
ML-1 (thyroid, adherent)	0.839	17.1 µM	0.82	7.05 µM		
NCI-H146 (small cell lung carcinoma, suspension)			0.898	7.95 µM	0.995	> 2 µM
NCI-H196 (small cell lung carcinoma, adherent)	0.926	> 20 µM	0.942	> 10 µM		
NCI-H1299 (large cell lung carcinoma, adherent)	0.879	> 20 µM	0.774	4.85 µM		
NCI-H1573 (lung adenocarcinoma, adherent)	0.963	> 20 µM	0.981	> 10 µM		
NCI-H1650 (lung adenocarcinoma, adherent)			0.765	4.81 µM		
NCI-H1734 (lung adenocarcinoma, adherent)	0.887	> 20 µM			0.896	> 2 µM

Cell Line	AUC (PIK-93)	IC50 (PIK-93)	AUC (piperlongumine)	IC50 (piperlongumine)	AUC (GW 441756)	IC50 (GW 441756)
NCI-H1793 (lung adenocarcinoma, adherent)	0.927	> 20 µM	0.88	> 10 µM		
NCI-H1915 (large cell lung carcinoma, adherent)	0.886	> 20 µM	0.809	5.35 µM		
NCI-H2170 (lung squamous cell carcinoma, adherent)	0.936	> 20 µM	0.914	> 10 µM		
NCI-H2228 (lung adenocarcinoma, adherent)	0.841	> 20 µM	0.839	> 10 µM		
PANC-08-13 (pancreas, adherent)	0.721	6.42 µM	0.799	6.41 µM		
PCI-38 (head and neck, adherent)	0.858	16.5 µM	0.788	4.42 µM		
PL18 (pancreas, adherent)	0.933	> 20 µM	0.464	0.498 µM		
RD (rhabdomyosarcoma, adherent)	0.803	11 µM	0.644	1.63 µM		
RT-112 (bladder, adherent)	0.775	8.52 µM	0.787	4.71 µM		
SN12C (kidney, adherent)	0.97	> 20 µM	0.773	4.39 µM		
SNU-175 (large intestine, suspension)	0.807	9.5 µM				
SNU-398 (liver, adherent)	0.678	4.01 µM	0.748	3.32 µM		
SNU-475 (liver, adherent)	0.822	9.92 µM				
SNU-1040 (large intestine, adherent)	0.835	> 20 µM	0.817	8.19 µM		
SW156 (kidney, adherent)	0.841	16.2 µM	0.848	8.67 µM		
SW837 (large intestine, adherent)	0.902	> 20 µM	0.838	> 10 µM		
SW1088 (glioma, adherent)	0.903	> 20 µM	0.844	> 10 µM		
SW1116 (large intestine, adherent)	0.98	> 20 µM	0.837	> 10 µM		
SW1463 (large intestine, adherent)	0.978	> 20 µM	0.956	> 10 µM		
T-24 (bladder, adherent)	0.897	> 20 µM	0.716	2.47 µM		
VMRC-RCW (kidney, adherent)	0.939	> 20 µM			0.98	> 2 µM
YMB-1-E (breast, adherent)	0.816	16.7 µM				

From the supplement of paper PMC4967469
